Source: PMC4336329 (PLoS ONE, 2015)
In all, about 310,000 compounds went through this assay and about 2,200 (0.71%) showed an effect of 50% or more. Effects have a minus sign here. This is one part of the list.

What follows are molecules tested against human ether-à-go-go-related gene (hERG) potassium channel (human, UniProt Q12809) (assay: primary screen, population patch clamp on CHO cells stably expressing hERG).
human ether-à-go-go-related gene (hERG) potassium channel, sequence (Q12809 whole entry, looked up): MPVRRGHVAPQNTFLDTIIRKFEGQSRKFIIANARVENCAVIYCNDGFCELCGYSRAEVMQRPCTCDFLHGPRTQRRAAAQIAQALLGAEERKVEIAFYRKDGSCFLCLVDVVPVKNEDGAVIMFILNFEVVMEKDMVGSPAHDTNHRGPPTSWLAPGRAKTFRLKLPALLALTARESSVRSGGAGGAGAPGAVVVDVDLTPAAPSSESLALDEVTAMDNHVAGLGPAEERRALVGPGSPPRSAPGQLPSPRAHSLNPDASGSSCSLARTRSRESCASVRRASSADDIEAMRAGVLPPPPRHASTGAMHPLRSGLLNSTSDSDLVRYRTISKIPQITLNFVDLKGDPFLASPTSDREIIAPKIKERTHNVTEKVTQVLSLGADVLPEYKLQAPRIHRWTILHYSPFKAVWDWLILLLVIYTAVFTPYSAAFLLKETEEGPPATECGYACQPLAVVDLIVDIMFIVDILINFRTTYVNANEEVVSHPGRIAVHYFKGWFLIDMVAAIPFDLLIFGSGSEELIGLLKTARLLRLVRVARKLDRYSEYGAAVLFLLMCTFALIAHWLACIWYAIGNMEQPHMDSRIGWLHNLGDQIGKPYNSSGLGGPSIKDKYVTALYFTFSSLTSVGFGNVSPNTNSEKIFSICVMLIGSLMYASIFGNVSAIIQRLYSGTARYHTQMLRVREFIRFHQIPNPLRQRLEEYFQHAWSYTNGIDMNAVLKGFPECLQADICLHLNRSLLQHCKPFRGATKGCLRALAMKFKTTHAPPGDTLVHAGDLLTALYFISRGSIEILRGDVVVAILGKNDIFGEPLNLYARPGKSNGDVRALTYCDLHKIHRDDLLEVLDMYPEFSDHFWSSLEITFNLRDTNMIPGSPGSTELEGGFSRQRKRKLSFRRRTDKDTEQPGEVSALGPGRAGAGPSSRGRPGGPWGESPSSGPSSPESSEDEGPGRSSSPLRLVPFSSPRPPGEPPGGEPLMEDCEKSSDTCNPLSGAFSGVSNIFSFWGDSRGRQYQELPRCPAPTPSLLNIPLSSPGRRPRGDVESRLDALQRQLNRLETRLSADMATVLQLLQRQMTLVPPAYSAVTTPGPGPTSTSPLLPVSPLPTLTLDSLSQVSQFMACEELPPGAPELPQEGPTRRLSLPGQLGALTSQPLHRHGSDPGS

Row | Compound | hERG current change (%, negative = inhibition) at 1uM [%]
1 | CC(C)(C)c1ccc(C(=O)Nc2cccnc2)cc1 | 5.43
2 | COCCOC(=O)C1=C(C)NC(=O)NC1c1ccc(-c2ccc(F)cc2)o1 (stereo not shown) | 0.0771
3 | Cc1cc(C)nc(N/N=C/c2cc(Br)ccc2O)n1 | 17.8
4 | Cc1ccnc(NC(=O)c2cc(-c3ccc(Cl)s3)nc3ccccc23)c1 | 1.34
5 | Cc1cc(C(F)(F)F)n2nc(-c3sccc3-n3cccc3)cc2n1 | 3.43
6 | O=C(O)Cn1c(-c2ccccc2)cc2ccccc21 | 16.6
7 | CC(=O)c1ccc(-c2ccc(C(=O)NCC(c3ccc(F)cc3)N3CCOCC3)o2)cc1 (stereo not shown) | 4.28
8 | Cc1ccc(C(=O)NCCN2C3=NC[C@H](C)N3C[C@H]2Cc2ccc(O)cc2)cc1Br | 9.94
9 | Cc1onc(-c2ccccc2)c1C(=O)OCCOc1ccc([N+](=O)[O-])cc1[N+](=O)[O-] | 9.89
10 | NC(=O)C1CCN(CCC(=O)Nc2cccc(Cl)c2)CC1 | 9.38
11 | CC(C)(C)NS(=O)(=O)c1ccc2[nH]c3c(c2c1)CCCCC3 | 11.4
12 | C1=C(c2c[nH]c3ccccc23)CCN(Cc2ccccc2)C1 | 5.82
13 | O=C(CNC(=O)c1ccc(Br)o1)NC1CCCCC1 | 17
14 | CCOC(=O)C1CCN(C(=O)CCCN2C(=O)c3ccccc3C2=O)CC1 | 0.389
15 | CCOC(=O)CN(C(=O)COc1nc(-c2ccccc2)cc(C)c1C#N)c1ccccc1 | 13.4
16 | COc1ccc(Cl)cc1NC(=O)NC(C)C | 18.1
17 | O=C(O)c1cccc2cccnc12 | 4.06
18 | Cc1c(NC(=O)COC(=O)Cc2ccc(Cl)cc2)c(=O)n(-c2ccccc2)n1C | 7.54
19 | CCOC(=O)C(Cc1c(F)cccc1Cl)c1ccno1 (stereo not shown) | 12.5
20 | CCCc1ccc2oc(C(=O)N(Cc3nccn3C)C(C)C)c(C)c2c1 | 8.08
21 | C#CCOCCOCCOCCNc1nc(N2CCOCC2)nc(N2CCN(C(=O)Cn3cc(CCC[NH+]=C(N)N)nn3)CC2)n1.[Cl-] | 17.5
22 | O=[N+]([O-])c1ccc2nn(Cc3ccccc3)cc2c1 | 10.5
23 | Cc1ccc(O)c(C(=O)CC(=O)c2ccc(Cl)cc2)c1 | 17.2
24 | COc1cccc(N2CCN(c3nc(-c4ccccc4C)cc(=O)[nH]3)CC2)c1 | 4.99
25 | C/C(N)=C(/C#N)C(=O)CSc1nc2ccccc2[nH]1 | 5.05
